Assay results taken from the supplement of paper PMC6089552.
The whole screen tested about 3,200 compounds, of which about 300 (9.4%) showed activity. The list shows a part of the results, in another mix than the full data.

Tested on: A673/TR/shEF
Test: cell viability (LOESS-normalised, relative to median of negative controls) (log2 ratio); higher = more viable cells (less compound effect), active = hit call of the paper (over 3 MAD below the median)
Conditions: treatment time: 72 h
Summary of the method: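 For three days, A673/TR/shEF Ewing sarcoma cells in 384-well plates (1,500 per well) were treated with library compounds at two or more concentrations or with DMSO controls, after doxycycline had been added or withheld 24 h beforehand to induce EWS-FLI1 shRNA knockdown. Viability was read by CellTiter-Glo luminescence on an Envision reader. The data were LOESS-corrected per plate, divided by the median of negative controls and log2-transformed.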

[1] = 0.25 µM, library screen: screen1, EWS-FLI1 expression: high (no doxycycline)
[2] = 0.25 µM, library screen: screen1, EWS-FLI1 expression: low (doxycycline-induced shRNA knockdown)
[3] = 2.5 µM, library screen: screen1, EWS-FLI1 expression: high (no doxycycline)
[4] = 2.5 µM, library screen: screen1, EWS-FLI1 expression: low (doxycycline-induced shRNA knockdown)
[5] = 0.103 µM, library screen: screen3, EWS-FLI1 expression: high (no doxycycline)
[6] = 0.103 µM, library screen: screen3, EWS-FLI1 expression: low (doxycycline-induced shRNA knockdown)
[7] = 0.25 µM, library screen: screen2, EWS-FLI1 expression: high (no doxycycline)
[8] = 0.25 µM, library screen: screen2, EWS-FLI1 expression: low (doxycycline-induced shRNA knockdown)
[9] = 0.308 µM, library screen: screen3, EWS-FLI1 expression: high (no doxycycline)
[10] = 0.308 µM, library screen: screen3, EWS-FLI1 expression: low (doxycycline-induced shRNA knockdown)
[11] = 0.926 µM, library screen: screen3, EWS-FLI1 expression: high (no doxycycline)
[12] = 0.926 µM, library screen: screen3, EWS-FLI1 expression: low (doxycycline-induced shRNA knockdown)
[13] = 2.5 µM, library screen: screen2, EWS-FLI1 expression: high (no doxycycline)
[14] = 2.5 µM, library screen: screen2, EWS-FLI1 expression: low (doxycycline-induced shRNA knockdown)
[15] = 2.8 µM, library screen: screen3, EWS-FLI1 expression: high (no doxycycline)
[16] = 2.8 µM, library screen: screen3, EWS-FLI1 expression: low (doxycycline-induced shRNA knockdown)
[17] = 8.3 µM, library screen: screen3, EWS-FLI1 expression: high (no doxycycline)
[18] = 8.3 µM, library screen: screen3, EWS-FLI1 expression: low (doxycycline-induced shRNA knockdown)
[19] = 25 µM, library screen: screen3, EWS-FLI1 expression: high (no doxycycline)
[20] = 25 µM, library screen: screen3, EWS-FLI1 expression: low (doxycycline-induced shRNA knockdown)

Measured: cell viability (log2)

COC(=O)c1c(C)c2c(c(C)c1O)OC(=O)c1c(C)c(Cl)c(O)c(Cl)c1O2
inactive: [1] 0.0528 | [2] 0.162 | [3] 0.116 | [4] 0.202

COc1cc2c(cc1OC)[C@@H]1Cc3ccc(OC)c(OC)c3CN1CC2
inactive: [1] 0.0651 | [2] -0.0137 | [3] 0.157 | [4] 0.151

O=C(CCCN1CCC(O)(c2ccc(Cl)cc2)CC1)c1ccc(F)cc1
inactive: [5] 0.03 | [6] 0.0457 | [1] 0.135 | [2] 0.162 | [7] 0.115 | [8] 0.105 | [9] 0.167 | [10] 0.116 | [11] 0.112 | [12] 0.0484 | [3] 0.201 | [4] 0.278 | [13] 0.142 | [14] -0.00685 | [15] 0.0784 | [16] 0.164 | [17] 0.0699 | [18] 0.0466 | [19] 0.0922 | [20] 0.166

COc1ccc2c(c1)c(CC(=O)O)c(C)n2Cc1ccc(Cl)cc1
inactive: [7] 0.107 | [8] 0.126 | [13] 0.0273 | [14] 0.0728

CC1(C)[C@@H](O)CC[C@]2(C)[C@H]3C(=O)C=C4[C@@H]5C[C@@](C)(C(=O)O)CC[C@]5(C)CC[C@@]4(C)[C@]3(C)CC[C@@H]12
inactive: [1] 0.0754 | [2] 0.0366 | [3] 0.0468 | [4] 0.088

COc1ccccc1CN1CCN(Cc2ccc(OC)c(OC)c2OC)CC1
inactive: [1] 0.0684 | [2] 0.104 | [3] 0.0567 | [4] 0.0723

COc1ccc(-c2coc3cc(O)ccc3c2=O)c(O)c1O
inactive: [1] 0.0601 | [2] 0.0374 | [3] 0.0945 | [4] 0.0557

COc1c(C)c2c(c(O)c1C/C=C(\C)CCC(=O)OCCN1CCOCC1)C(=O)OC2
inactive: [5] 0.051 | [6] 0.0315 | [9] 0.00041 | [10] 0.00916 | [11] -0.00635 | [12] 0.0426 | [15] 0.0529 | [16] 0.0135 | [17] -0.0785 | [18] 0.0651
active: [19] -0.48 | [20] -0.33

NCCS
inactive: [1] 0.133 | [2] 0.0651 | [7] 0.14 | [8] 0.0819 | [3] 0.116 | [4] -0.00976 | [13] 0.0277 | [14] -0.00818

COCCOC(=O)C1=C(C)NC(C)=C(C(=O)OC(C)C)C1c1cccc([N+](=O)[O-])c1 (stereo not given)
inactive: [5] 0.0776 | [6] 0.103 | [1] 0.153 | [2] 0.0144 | [7] 0.0652 | [8] 0.00869 | [9] 0.0674 | [10] 0.136 | [11] 0.0964 | [12] 0.0994 | [3] 0.126 | [4] 0.0808 | [13] 0.108 | [14] 0.089 | [15] 0.0078 | [16] 0.123 | [17] 0.0775 | [18] 0.0884 | [19] 0.0276 | [20] 0.0391

CC(=O)N(O)CCCCCNC(=O)CCC(=O)N(O)CCCCCNC(=O)CCC(=O)N(O)CCCCCN
inactive: [1] 0.101 | [2] 0.183 | [3] 0.148 | [4] 0.155

O=S(=O)(c1cccc2cnccc12)N1CCNCC1
inactive: [7] 0.166 | [8] 0.045 | [13] 0.145 | [14] 0.0254

NC(Cc1cccc(-c2ccccc2CP(=O)(O)O)c1)C(=O)O (stereo not given)
inactive: [7] 0.125 | [8] 0.14 | [13] 0.201 | [14] 0.103

CC(=O)OC1CC[C@@]2(C)C(CC[C@H]3[C@@H]4CC=C(C(C)=O)[C@@]4(C)C(=O)C[C@@H]32)C1 (stereo not given in full)
inactive: [1] 0.0289 | [2] 0.0314 | [3] 0.141 | [4] 0.0915

O=C1Cc2cc(CCN3CCN(c4nsc5ccccc45)CC3)c(Cl)cc2N1
inactive: [5] 0.0465 | [6] 0.129 | [9] 0.0555 | [10] 0.0344 | [11] 0.013 | [12] 0.0779 | [15] 0.0748 | [16] 0.0861 | [17] 0.0519 | [18] 0.0624 | [19] 0.0773 | [20] 0.0566

CCN[C@H]1C[C@H](C)S(=O)(=O)c2sc(S(N)(=O)=O)cc21
inactive: [5] 0.00676 | [6] 0.0565 | [9] -0.00803 | [10] 0.0636 | [11] -0.00657 | [12] 0.0451 | [15] -0.0163 | [16] 0.0246 | [17] 0.00351 | [18] 0.0537 | [19] -0.0107 | [20] 0.0326

CCOC(=O)[C@]12CC1/C(=N\O)c1ccccc1O2 (stereo not given in full)
inactive: [7] 0.145 | [8] 0.13 | [13] 0.0916 | [14] 0.0113

O=c1cc(-c2ccc(O)c(O)c2)oc2cc(O)cc(O)c12
inactive: [1] 0.0908 | [2] 0.0963 | [7] 0.121 | [8] 0.0811 | [3] 0.134 | [4] 0.0546 | [13] 0.0837 | [14] 0.0515

COc1ccc2c(c1)CCC1=CC(=O)CC[C@@]12C
inactive: [1] 0.0515 | [2] 0.00881 | [3] 0.19 | [4] 0.155

NCCCCNCCCN
inactive: [1] 0.108 | [2] 0.0718 | [7] 0.0614 | [8] 0.0614 | [3] 0.103 | [4] -0.0247 | [13] 0.156 | [14] 0.0692

COC(=O)Nc1ccc(-c2nc(N3CCOCC3)c3cnn(C4CCN(Cc5cccnc5)CC4)c3n2)cc1
inactive: [5] -0.0181 | [6] 0.0282 | [9] -0.00456 | [10] -0.0439 | [11] -0.169 | [12] -0.0706
active: [15] -0.33 | [16] -0.297 | [17] -0.973 | [18] -0.691 | [19] -1.84 | [20] -1.76
